From publication PMC4336329 (PLoS ONE, 2015)
Among all 310,000 compounds or so, about 14,000 (4.5%) showed an effect of 50% or more. Effects have a minus sign here. The list shows a part of the results.

The compounds below were run against human ether-à-go-go-related gene (hERG) potassium channel (human, UniProt Q12809) (assay: primary screen, population patch clamp on CHO cells stably expressing hERG).
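Also: peak tail current of the secondary pulse compared with the same well before compound.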

human ether-à-go-go-related gene (hERG) potassium channel, sequence (Q12809 whole entry, looked up): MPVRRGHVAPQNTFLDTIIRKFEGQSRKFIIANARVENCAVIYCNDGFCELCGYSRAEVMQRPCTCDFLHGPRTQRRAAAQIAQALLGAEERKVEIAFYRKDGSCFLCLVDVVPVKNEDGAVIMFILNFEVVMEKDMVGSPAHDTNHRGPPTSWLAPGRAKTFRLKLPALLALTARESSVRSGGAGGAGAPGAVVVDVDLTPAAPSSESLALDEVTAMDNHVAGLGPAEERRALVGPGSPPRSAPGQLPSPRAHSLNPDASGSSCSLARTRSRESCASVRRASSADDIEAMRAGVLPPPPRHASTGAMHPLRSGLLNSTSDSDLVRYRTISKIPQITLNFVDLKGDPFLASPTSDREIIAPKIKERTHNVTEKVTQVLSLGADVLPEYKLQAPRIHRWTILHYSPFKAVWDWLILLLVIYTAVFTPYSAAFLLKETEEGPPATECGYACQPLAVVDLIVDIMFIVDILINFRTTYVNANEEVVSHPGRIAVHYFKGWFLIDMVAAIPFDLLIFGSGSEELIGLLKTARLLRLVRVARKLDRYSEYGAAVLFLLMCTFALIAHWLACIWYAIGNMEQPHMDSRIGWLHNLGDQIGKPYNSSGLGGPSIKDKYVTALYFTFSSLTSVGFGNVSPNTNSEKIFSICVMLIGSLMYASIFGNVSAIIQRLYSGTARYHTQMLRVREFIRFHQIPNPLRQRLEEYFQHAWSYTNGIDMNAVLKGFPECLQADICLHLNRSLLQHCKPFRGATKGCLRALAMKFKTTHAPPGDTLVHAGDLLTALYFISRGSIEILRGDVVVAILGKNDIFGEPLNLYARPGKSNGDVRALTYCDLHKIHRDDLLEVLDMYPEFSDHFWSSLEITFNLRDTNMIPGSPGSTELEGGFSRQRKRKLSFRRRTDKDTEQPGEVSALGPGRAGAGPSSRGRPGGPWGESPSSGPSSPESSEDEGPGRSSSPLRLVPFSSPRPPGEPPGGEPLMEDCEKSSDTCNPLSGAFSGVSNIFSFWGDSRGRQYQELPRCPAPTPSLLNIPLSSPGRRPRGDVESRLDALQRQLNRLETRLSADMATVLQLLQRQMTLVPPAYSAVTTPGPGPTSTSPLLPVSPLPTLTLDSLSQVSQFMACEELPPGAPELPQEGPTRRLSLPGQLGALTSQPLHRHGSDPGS

Structure (SMILES) | hERG current change (%, negative = inhibition) at 10uM [%]
CN(C)CC#Cc1cncc(C(=O)NNC(=O)Nc2ccc(Cl)cc2)c1 | 17.7
COc1ccc(C2CCCN2C(=S)Nc2c(C)cccc2C)cc1OC (stereo not shown) | 5.97
COc1c(C)cc(Br)cc1C(=O)Nc1ccc(S(N)(=O)=O)cc1 | 18.9
CCc1ccc2[nH]c(=O)c(CN(Cc3ccc4c(c3)OCO4)C(=O)c3ccco3)cc2c1 | -22.7
CSc1ccc(S(=O)(=O)NC2CC3CCC2C3)cc1 (stereo not shown) | 8.85
CC(C)(C)n1c(O)c2ccc(C(=O)N=NC(=O)c3ccccc3)cc2c1O | 5.48
CC(C)CNC(=O)CSc1nnc2ccccn12 | 14.6
CCOC(=O)CC(NC(=O)c1cc2cc(Br)ccc2oc1=O)c1cccc([N+](=O)[O-])c1 (stereo not shown) | -27.5
Cc1c(CC(=O)O)c(=O)oc2c(C)c(OCc3ccc(F)cc3F)ccc12 | 30.9
CCCc1nnc(NC(=O)CCC(=O)N2CCN(Cc3ccc(Cl)cc3)CC2)s1 | -12.9
CCn1c(=O)n(CC)c2cc(N3CCCC3)c(NC(=O)c3cc(Cl)ccc3OC)cc21 | 10.7
CCC(C)NC(=O)C1(O)c2ccccc2NC(=O)N1c1ccc(C)c(C)c1 (stereo not shown) | 19.9
O=C(NNC(=O)c1ccc2nc[nH]c2c1)c1ccccc1 | 14.8
Br.CCn1c(-c2cc(OC)ccc2OC)csc1=Nc1c(C)n(C)n(-c2ccccc2)c1=O | 9.46
CCCCc1nnc(SCC(=O)Nc2nccs2)n1C | 2.44
O=P(/C(=N/O)N1CCOCC1)(N1CCOCC1)N1CCOCC1 | 12.1
O=C(NNc1nc2ccccc2s1)Nc1ccc(F)cc1 | 3.17
CN(Cc1c(F)cccc1Cl)C(=O)C1CC(=O)N(CCc2ccccc2)C1 (stereo not shown) | -34.7
CC(=O)Nc1sc2c(c1C(c1ccccn1)N1CCN(C)CC1)CCCC2 (stereo not shown) | -12.9
COc1ccc(Cn2c(=O)cc(N)n(-c3ccccc3C)c2=O)cc1 | 16.6
Cc1ccc(C)c(NC(=O)Cn2nc(C)c3ccccc3c2=O)c1 | 9
COc1ccc(S(=O)(=O)N2CCOCC2)cc1NC(=O)CN1C(=O)NC2(CCCCC2C)C1=O (stereo not shown) | -41.9
COCCN(C(=O)CCC(=O)Nc1ccccn1)C(C(=O)NCCC(C)C)c1ccc(F)cc1 (stereo not shown) | 5.07
Cc1ccnc(NC(=O)CSc2cc(=O)n(C)c3ccccc23)c1 | 19.6
O=c1ccc(-c2ccc(S(=O)(=O)Nc3ccccc3)o2)n[nH]1 | 5.76
O=C(O)c1ccc2c(c1)C(=O)N(NC(=O)c1ccccc1)C2=O | 19.4
O=C(Nc1ccccc1)C1CC(=O)n2ncnc2N1 (stereo not shown) | 6.48
C=C(C)CSc1[nH]c(=O)cc(C)c1C#N | 10.2

Structure (SMILES) | hERG current change (%, negative = inhibition) at 10uM [%]
Cc1ccc(C2=Nc3ccccc3N(C(=O)c3ccccc3)C(C)C2)cc1 (stereo not shown) | -9.05
O=C(C1CCC(CNc2c(N3CCCC3)c(=O)c2=O)CC1)N1CCc2ccccc21 (stereo not shown) | 1.89
COc1ccccc1Nc1nc(C)cs1 | 8.79
CCN(C(=O)CSc1nnnn1C)c1c(N)n(Cc2ccccc2)c(=O)[nH]c1=O | -22.9
CCOc1ccccc1NC(=O)NC(C)c1ccc2c(c1)OCO2 (stereo not shown) | 3.52
COc1ccccc1NS(=O)(=O)c1ccc2oc(SC3CCOC3=O)nc2c1 (stereo not shown) | -1.09
Cc1cc(CSc2nc(C)cc(=O)[nH]2)c2ncccc2c1 | -3.07
Cc1cc(C)n2nc(C(=O)Nc3ccc(S(=O)(=O)N4CCCC4)cc3)nc2n1 | -8.44
CN(C)C1(CNC(=O)C2CCN(S(=O)(=O)c3cccc(C(F)(F)F)c3)CC2)CCCCC1 | -34.6
CCOc1ccc(OCC)c(NC(=O)c2ccc(CNc3c(N4CCOCC4)c(=O)c3=O)cc2)c1 | 7.11
COc1cccc(C2=NOC(C(=O)Nc3ccc(OC)c(OC)c3)C2)c1 (stereo not shown) | -11.8
CCCCC(CC(O)COCCC)C(=O)NN (stereo not shown) | 16.1
CC(C)CNC(=O)c1cc(=O)[nH]c2ccc(S(=O)(=O)Nc3ccc(F)cc3)cc12 | 10.7
c1ccc(C2C3=C(Nc4ncnn42)c2ccccc2CCC3)cc1 (stereo not shown) | 6.55
CC(C)C(=O)NCC(c1cccs1)S(=O)(=O)c1ccc(F)cc1 (stereo not shown) | 16.7
CCCCc1cc(=O)oc2cc(C)cc(OCC(=O)N[C@@H](CSCc3ccccc3)C(=O)O)c12 | 15.2
Cc1cccc(N(Cc2cc3ccc(C)cc3[nH]c2=O)C(=O)c2ccco2)c1 | -8.8
O=C(CSc1nc(O)cc(=O)n1-c1ccccc1)NCc1ccccc1 | -0.712
OC(COc1cccc2ccccc12)CN1CCN(c2ccccc2Cl)CC1 (stereo not shown) | -50.2
CCC(CC)C(=O)Nc1nnc(SCC(=O)NC(C)(C)C)s1 | 5.93
O=C(CC1C(=O)NCCN1Cc1ccc(Cl)c(F)c1)NC1CCC1 (stereo not shown) | 13.5
CC(=O)O[C@@]12CO[C@@H]1C[C@H](O)[C@@]1(C)C(=O)[C@H](O)C3=C(C)[C@@H](OC(=O)[C@H](O)[C@@H](NC(=O)c4ccccc4)c4ccccc4)C[C@@](O)([C@@H](OC(=O)c4ccccc4)C12)C3(C)C (stereo partly shown) | 2.07
CN(Cc1cn(C)c2ccccc12)C(=S)Nc1cc(F)cc(F)c1 | -14.9
CCOc1ccc(CN(C)c2nc(-c3cccnc3)nc3ccccc23)cc1OC | -15.2
COc1ccc(CNCCc2ccccc2)cc1OCC(N)=O | -12
CCCCOC(=O)/C=C\C(=O)OCCCC | 9.89
Cc1ccnc(NC(=O)CCC(=O)N(CC(=O)NCc2ccc(F)cc2)CC2CCCO2)c1 (stereo not shown) | 2.42
